Experimental data from PubChem BioAssay AID445 (National Center for Advancing Translational Sciences (NCATS), 2006).
About 40 (0.04%) of roughly 110,000 compounds were called active. Inconclusive results, whose numbers are uncertain, are shown with a selection of clear calls. Calls follow the shape of the dose curve; as a rule, active = well fitted curve in the direction sought with a large enough effect in the signal ratio (not every such curve was filed as active); inconclusive = small, poorly fitted or top-dose-only effect, or a change in a side signal; inactive = flat fitted curve, though single readings scatter; the % refers to the signal ratio. A potency beside an inconclusive call is a rough fit, not a confirmed value.

Test: IkB Signaling;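 as to IkBa stabilization activation: 0% = basal untreated cells and 100% = reference inhibitor full response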
Details: ABC-DLBCL IkBa-CBG/CBR dual luciferase ratio (green luciferase fused to IkBa over red control in OCI-Ly3 lymphoma cells), 4 h; IkBa stabilization activation: at 57.1 µM (top of the series), scaled: untreated 0%, proteasome inhibitor 100% unless noted
In short: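 In this assay, an IκBα–CBG68 fusion accumulates when IKK-driven degradation is blocked; native CBR normalizes for cell number. OCI-Ly3 cells were treated 4 h with compound and doxycycline, then green and red light read after Chroma-Glo addition.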
Potency is read from the fitted curve at half-maximal effect.

SMILES | IkBa stabilization activation | Potency
O=C(COc1ccc2ccccc2c1)N1CCN(c2ccccc2O)CC1 | inconclusive: 1.42% [signal inhibitor] | 
Cc1ccc(-c2[nH]c3ccccc3c2SCCNC(=O)c2ccc(S(=O)(=O)N(C)C)cc2)cc1 | inconclusive: 8.17% [signal inhibitor] | 
Cc1ccc(C)c(/C(O)=C2/C(=O)C(=O)N(CCN3CCOCC3)C2c2ccco2)c1 (stereo not given) | inconclusive: 13.6% [signal activator] | 
Cc1ccc(-c2nn(C)c(=O)c3ccccc23)cc1S(=O)(=O)N1CCOCC1 | inactive | 
Cn1cc(-c2nc3cnc(Oc4cccc(Cl)c4)nc3n(CCC#N)c2=O)c2ccccc21 | inactive: 0.718% [at 11.4 µM, scaled: untreated 0%, proteasome inhibitor 100%] | 
COc1ccc(Cl)cc1NC(=O)CCS(=O)(=O)c1cccc2nonc12 | inconclusive: 1.55% [signal inhibitor] | 
Cc1ccc(NC(=O)C(=O)NCC(c2cccnc2)N2CCOCC2)cc1Cl (stereo not given) | inconclusive: -4.09% [signal inhibitor] | 
Cn1nc(CC(=O)N2CCN(c3ccccc3)CC2)c2ccccc2c1=O | inconclusive: 1.13% [signal inhibitor] | 
O=C(CSc1ncnc2c1cnn2-c1ccccc1Cl)N1CCN(C(=O)c2ccco2)CC1 | inconclusive: 2.87% [signal inhibitor] | 
COc1ccccc1CNc1nc(-c2ccc(C(=O)N(C)C)cc2)nc2ccccc12 | inactive: -3.51% [at 11.4 µM, scaled: untreated 0%, proteasome inhibitor 100%] | 
Cc1c(CC(=O)N2CCCCC2)c(=O)oc2c(C)c3occ(C(C)(C)C)c3cc12 | inconclusive: 1.32% [signal inhibitor] | 
CC(C)(C)c1ccc(-c2nnc(SCC(=O)O)n2N)cc1 | inactive | 
COc1ccc(Cl)cc1NC(=O)C1CCN(c2nnc(C)c3c(C)n(-c4ccccc4)nc23)CC1 | inconclusive: -0.27% [signal inhibitor] | 
Cc1ccc(CN2CCSc3ccc(C(=O)NCCc4ccccc4)cc32)cc1 | inconclusive: 4.27% [signal inhibitor] | 
O=CN1Cc2[nH]c3ccccc3c2N(c2ccc(Cl)cc2)C1=O |  | inconclusive: 10 µM [signal inhibitor, partial curve]
COc1cccc(CSc2nc3n(n2)C(c2cccc(F)c2)C(C(=O)Nc2ccccc2C)=C(C)N3)c1 (stereo not given) | inactive | 
Cc1cccc(N2CCN(C(=O)c3ccc(CS(=O)c4cccc(Cl)c4)o3)CC2)c1C (stereo not given) | inconclusive: 0.0261% [signal inhibitor] | 
COCCn1c(C)cc(C(=O)CSc2nc(C)cc(C)c2C#N)c1C | inconclusive: 1.74% [signal inhibitor] | 
COc1ccc(CN(C(=O)Nc2cccc(Cl)c2)c2ccccn2)cc1OC | inactive | 
O=C(C1CC1)N1CCc2cc(Br)cc(S(=O)(=O)NC3CCCCC3)c21 | inconclusive: 6.24% [signal inhibitor] | 
Cc1ccc(O)c(NC(=O)c2cc(-c3ccc4c(c3)OCO4)on2)c1 |  | inconclusive: 7.94 µM [signal inhibitor]
COc1ccc(NC(=O)CCCSc2nc(-c3ccco3)cc(C(F)(F)F)n2)c(OC)c1 | inconclusive: -2.63% [signal inhibitor] | 

SMILES | IkBa stabilization activation | Potency
COc1cccc(OCc2nc3ccccc3n2Cc2ccccc2C)c1 | inconclusive: 1.66% [signal inhibitor] | 
CCOc1ccc(N(CC)C(=O)C2CCN(S(=O)(=O)c3cccc4nonc34)CC2)cc1 | inconclusive: 2.34% [signal inhibitor] | 
COc1ccc(-c2noc(N3CCC(C(=O)N4CCN(c5ccccn5)CC4)CC3)n2)cc1 | inconclusive: -4.77% [signal inhibitor] | 
[O-][n+]1onc2c1CCc1nnccc1-2 | inactive | 
Cc1ccc(-n2nc(C)c3c(C)cc(=O)n(CC(=O)N4CCCc5ccccc54)c32)cc1 | inconclusive: 5.28% [signal inhibitor] | 
COc1cc(OC)cc(-c2nc(-c3ccc(Br)cc3)no2)c1 | inactive | 
O=C(Cc1ccc(Cl)cc1)Nc1nnc2n1CCS2 | inconclusive: -2.06% [signal inhibitor] | 
COc1cccc(-c2ccc3c(N)c(C(=O)c4ccc(Br)cc4)sc3n2)c1 | inactive | 
COCC(=O)N1CCC[C@@]2(CCN(C(=O)Nc3ccc(OC)cc3)C2)C1 | inactive: 0.421% [at 11.4 µM, scaled: untreated 0%, proteasome inhibitor 100%] | 
CC(C)(CNS(=O)(=O)c1ccc(F)cc1)CNS(=O)(=O)c1ccc(F)cc1 | inactive | 
COc1ccc(NC(=O)c2cc3ccccn3n2)cc1 |  | inconclusive: 20 µM [signal inhibitor, partial curve]
CCOc1ccc(N(C)C(=O)C2CCN(S(=O)(=O)c3ccc4c(c3)CCCN4C(C)=O)CC2)cc1 | inconclusive: 0.526% [signal inhibitor] | 
CCC(Sc1nc2ccncc2[nH]1)C(=O)Nc1ccc(F)cc1 (stereo not given) | inconclusive: 1.96% [signal inhibitor] | 
COc1cccc(-n2c(=O)c3sc4ccccc4c3n(CC(=O)Nc3ccccc3OC)c2=O)c1 | inactive | 
O=C(OCC(=O)N1CCN(C(=O)c2ccco2)CC1)c1cn(-c2ccccc2)nc1-c1ccccc1 | inconclusive: 0.822% [signal inhibitor] | 
Cc1cc(C)cc(NC(=O)C(NS(=O)(=O)c2cccc3nsnc23)c2ccccc2)c1 (stereo not given) | inconclusive: 2.67% [signal inhibitor] | 
OC[C@@H]1O[C@@H](n2cnc3c(NC4CCCC4)ncnc32)[C@H](O)[C@H]1O | inconclusive: 3.58% [signal inhibitor] | 
COc1ccc2nc(NC(=O)c3ccoc3C)sc2c1 |  | inconclusive: 6.31 µM [signal inhibitor, partial curve]
CCOC(=O)N1CCN(C(=O)c2ccc3c(c2)N(Cc2cc(C)ccc2C)C(=O)c2ccccc2S3=O)CC1 (stereo not given) | inconclusive: 2.49% [signal inhibitor] | 
CC(=O)Nc1cccc(C(=O)Nc2ccccc2C(=O)O)c1 |  | inconclusive: 15.8 µM [signal inhibitor, partial curve]
CCCCOc1nnc(-c2ccc(OCC)cc2)c2ccccc12 | inconclusive: 6.12% [signal inhibitor] | 
O=C1SC(Nc2ccc(Cl)cc2)C(=O)N1Cc1ccccc1 (stereo not given) |  | inconclusive: 20 µM [signal activator]

SMILES | IkBa stabilization activation | Potency
CCCc1cc(=O)n2[nH]c(NCc3ccc(CC)cc3)nc2n1 | inconclusive: 1.49% [signal inhibitor] | 
O=C1c2[nH]nc(-c3ccccc3)c2C(c2ccccc2)N1c1cccc(C(F)(F)F)c1 (stereo not given) | inconclusive: -1.33% [signal inhibitor] | 
Cc1ccc(C(=O)CSc2nc(C)cc(SCc3nnc(-c4ccccc4)o3)n2)cc1 |  | inconclusive: 0.501 µM [signal inhibitor, full curve]
Cc1ccc2oc(C(=O)Nc3ccc(S(=O)(=O)Nc4onc(C)c4C)cc3)cc(=O)c2c1 | inconclusive: -0.749% [signal inhibitor] | 
CCc1ccc(CNc2ccc(O)cc2)cc1 |  | inconclusive: 31.6 µM [rising, partial curve]
Cc1ccc(NC(=O)CCCn2c3ccccc3c(=O)c3cc(C)ccc32)c(Br)c1 | inconclusive: 3.49% [signal inhibitor] | 
CC1CCN(S(=O)(=O)c2ccc3c(c2)N(CC(=O)NCCc2ccc(Cl)cc2)C(=O)CO3)CC1 | inconclusive: 0.244% [signal inhibitor] | 
CCOC(=O)c1c(C)[nH]c(C)c1S(=O)(=O)N1CCC(C(=O)N2CCN(c3cc(C)ccc3C)CC2)CC1 | inconclusive: -0.896% [signal inhibitor] | 
Cc1cc(-c2cccnc2)c(C#N)c(SCC#N)n1 | inactive | 
O=C(CSc1ncc(S(=O)(=O)c2ccc(Cl)cc2)c(=O)[nH]1)Nc1ccc2c(c1)OCCO2 | inconclusive: 0.937% [signal inhibitor] | 
CCCC(=O)Nc1nnc(SCc2cc(=O)c3ccc(C)cc3[nH]2)s1 | inconclusive: 13% [signal inhibitor] | 
COC(=O)c1cc(N2C(=O)C3C(C2=O)C2(C)C=CC3(C)O2)ccc1Cl (stereo not given) | inconclusive: 0.99% [signal inhibitor] | 
O=C(c1ccc(S(=O)(=O)NCC2CCCO2)cc1)N1CCc2ccccc21 (stereo not given) | inconclusive: 1.71% [signal inhibitor] | 
Nc1c(C(=O)NCc2ccc3c(c2)OCO3)c2nc3ccccc3nc2n1CCCN1CCOCC1 | inconclusive: 6.81% [signal inhibitor] | 
Cc1ccc(C2CC(C(F)F)n3ncc(C(=O)Nc4cnn(Cc5ccccc5C)c4)c3N2)cc1 (stereo not given) | inconclusive: 11.6% [signal inhibitor] | 
COc1ccc(-c2nc3ccc(NS(=O)(=O)c4ccccc4)cc3o2)cc1 | inconclusive: -1.55% [signal inhibitor] | 
C=CCC(=O)OCC(=O)Nc1ccc(Oc2ccccc2)cc1 | inconclusive: 3.36% [signal inhibitor] | 
Cc1cccc(-c2nnc3n(CCc4ccccc4)c(=O)c4ccccc4n23)c1 | inconclusive: -0.261% [signal inhibitor] | 
Cc1ccc(NC(=O)c2sc(-n3nc(C)c(Cc4ccc(Cl)cc4)c3C)nc2C)cc1 | inconclusive: -0.144% [signal inhibitor] | 
Oc1ccc(O)cc1 | inactive | 
CCN(Cc1ccccc1)C(=O)Cn1c(=O)n(-c2ccc(OC)cc2OC)c(=O)c2c(C)c(C)sc21 | inconclusive: 4.08% [signal inhibitor] | 
